Consider eight molecules from the supplement of paper PMC12423691.

The list shows a part of the results. Binding of human transcription factors and regulators to the viral nucleoprotein by AlphaScreen, crude cell-free proteins, amounts not normalised, one pass. Fold of the Venus control; higher = more signal. No active / inactive call. Single-pass screen; sequences are the whole Swiss-Prot entries looked up by name.

B1: RXRG, P48443 (protein)
chain: MYGNYSHFMKFPAGYGGSPGHTGSTSMSPSAALSTGKPMDSHPSYTDTPVSAPRTLSAVGTPLNALGSPYRVITSAMGPPSGALAAPPGINLVAPPSSQLNVVNSVSSSEDIKPLPGLPGIGNMNYPSTSPGSLVKHICAICGDRSSGKHYGVYSCEGCKGFFKRTIRKDLIYTCRDNKDCLIDKRQRNRCQYCRYQKCLVMGMKREAVQEERQRSRERAESEAECATSGHEDMPVERILEAELAVEPKTESYGDMNMENSTNDPVTNICHAADKQLFTLVEWAKRIPHFSDLTLEDQVILLRAGWNELLIASFSHRSVSVQDGILLATGLHVHRSSAHSAGVGSIFDRVLTELVSKMKDMQMDKSELGCLRAIVLFNPDAKGLSNPSEVETLREKVYATLEAYTKQKYPEQPGRFAKLLLRLPALRSIGLKCLEHLFFFKLIGDTPIDTFLMEMLETPLQIT
B2: SNAPC5, O75971 (protein)
chain: MLSRLQELRKEEETLLRLKAALHDQLNRLKVEELALQSMISSRRGDEMLSSHTVPEQSHDMLVHVDNEASINQTTLELSTKSHVTEEEEEEEEEESDS
B3: FOXP1, Q9H334 (protein)
chain: MMQESGTETKSNGSAIQNGSGGSNHLLECGGLREGRSNGETPAVDIGAADLAHAQQQQQQALQVARQLLLQQQQQQQVSGLKSPKRNDKQPALQVPVSVAMMTPQVITPQQMQQILQQQVLSPQQLQVLLQQQQALMLQQQQLQEFYKKQQEQLQLQLLQQQHAGKQPKEQQQVATQQLAFQQQLLQMQQLQQQHLLSLQRQGLLTIQPGQPALPLQPLAQGMIPTELQQLWKEVTSAHTAEETTGNNHSSLDLTTTCVSSSAPSKTSLIMNPHASTNGQLSVHTPKRESLSHEEHPHSHPLYGHGVCKWPGCEAVCEDFQSFLKHLNSEHALDDRSTAQCRVQMQVVQQLELQLAKDKERLQAMMTHLHVKSTEPKAAPQPLNLVSSVTLSKSASEASPQSLPHTPTTPTAPLTPVTQGPSVITTTSMHTVGPIRRRYSDKYNVPISSADIAQNQEFYKNAEVRPPFTYASLIRQAILESPEKQLTLNEIYNWFTRMFAYFRRNAATWKNAVRHNLSLHKCFVRVENVKGAVWTVDEVEFQKRRPQKISGNPSLIKNMQSSHAYCTPLNAALQASMAENSIPLYTTASMGNPTLGNLASAIREELNGAMEHTNSNESDSSPGRSPMQAVHPVHVKEEPLDPEEAEGPLSLVTTANHSPDFDHDRDYEDEPVNEDME
B4: NR3C1, P04150 (protein)
chain: MDSKESLTPGREENPSSVLAQERGDVMDFYKTLRGGATVKVSASSPSLAVASQSDSKQRRLLVDFPKGSVSNAQQPDLSKAVSLSMGLYMGETETKVMGNDLGFPQQGQISLSSGETDLKLLEESIANLNRSTSVPENPKSSASTAVSAAPTEKEFPKTHSDVSSEQQHLKGQTGTNGGNVKLYTTDQSTFDILQDLEFSSGSPGKETNESPWRSDLLIDENCLLSPLAGEDDSFLLEGNSNEDCKPLILPDTKPKIKDNGDLVLSSPSNVTLPQVKTEKEDFIELCTPGVIKQEKLGTVYCQASFPGANIIGNKMSAISVHGVSTSGGQMYHYDMNTASLSQQQDQKPIFNVIPPIPVGSENWNRCQGSGDDNLTSLGTLNFPGRTVFSNGYSSPSMRPDVSSPPSSSSTATTGPPPKLCLVCSDEASGCHYGVLTCGSCKVFFKRAVEGQHNYLCAGRNDCIIDKIRRKNCPACRYRKCLQAGMNLEARKTKKKIKGIQQATTGVSQETSENPGNKTIVPATLPQLTPTLVSLLEVIEPEVLYAGYDSSVPDSTWRIMTTLNMLGGRQVIAAVKWAKAIPGFRNLHLDDQMTLLQYSWMFLMAFALGWRSYRQSSANLLCFAPDLIINEQRMTLPCMYDQCKHMLYVSSELHRLQVSYEEYLCMKTLLLLSSVPKDGLKSQELFDEIRMTYIKELGKAIVKREGNSSQNWQRFYQLTKLLDSMHEVVENLLNYCFQTFLDKTMSIEFPEMLAEIITNQIPKYSNGNIKKLLFHQK
B5: CTCF, P49711 (protein)
chain: MEGDAVEAIVEESETFIKGKERKTYQRRREGGQEEDACHLPQNQTDGGEVVQDVNSSVQMVMMEQLDPTLLQMKTEVMEGTVAPEAEAAVDDTQIITLQVVNMEEQPINIGELQLVQVPVPVTVPVATTSVEELQGAYENEVSKEGLAESEPMICHTLPLPEGFQVVKVGANGEVETLEQGELPPQEDPSWQKDPDYQPPAKKTKKTKKSKLRYTEEGKDVDVSVYDFEEEQQEGLLSEVNAEKVVGNMKPPKPTKIKKKGVKKTFQCELCSYTCPRRSNLDRHMKSHTDERPHKCHLCGRAFRTVTLLRNHLNTHTGTRPHKCPDCDMAFVTSGELVRHRRYKHTHEKPFKCSMCDYASVEVSKLKRHIRSHTGERPFQCSLCSYASRDTYKLKRHMRTHSGEKPYECYICHARFTQSGTMKMHILQKHTENVAKFHCPHCDTVIARKSDLGVHLRKQHSYIEQGKKCRYCDAVFHERYALIQHQKSHKNEKRFKCDQCDYACRQERHMIMHKRTHTGEKPYACSHCDKTFRQKQLLDMHFKRYHDPNFVPAAFVCSKCGKTFTRRNTMARHADNCAGPDGVEGENGGETKKSKRGRKRKMRSKKEDSSDSENAEPDLDDNEDEEEPAVEIEPEPEPQPVTPAPPPAKKRRGRPPGRTNQPKQNQPTAIIQVEDQNTGAIENIIVEVKKEPDAEPAEGEEEEAQPAATDAPNGDLTPEMILSMMDR
B6: SNAPC4, Q5SXM2 (protein)
chain: MDVDAEREKITQEIKELERILDPGSSGSHVEISESSLESDSEADSLPSEDLDPADPPISEEERWGEASNDEDDPKDKTLPEDPETCLQLNMVYQEVIQEKLAEANLLLAQNREQQEELMRDLAGSKGTKVKDGKSLPPSTYMGHFMKPYFKDKVTGVGPPANEDTREKAAQGIKAFEELLVTKWKNWEKALLRKSVVSDRLQRLLQPKLLKLEYLHQKQSKVSSELERQALEKQGREAEKEIQDINQLPEEALLGNRLDSHDWEKISNINFEGSRSAEEIRKFWQNSEHPSINKQEWSREEEERLQAIAAAHGHLEWQKIAEELGTSRSAFQCLQKFQQHNKALKRKEWTEEEDRMLTQLVQEMRVGSHIPYRRIVYYMEGRDSMQLIYRWTKSLDPGLKKGYWAPEEDAKLLQAVAKYGEQDWFKIREEVPGRSDAQCRDRYLRRLHFSLKKGRWNLKEEEQLIELIEKYGVGHWAKIASELPHRSGSQCLSKWKIMMGKKQGLRRRRRRARHSVRWSSTSSSGSSSGSSGGSSSSSSSSSEEDEPEQAQAGEGDRALLSPQYMVPDMDLWVPARQSTSQPWRGGAGAWLGGPAASLSPPKGSSASQGGSKEASTTAAAPGEETSPVQVPARAHGPVPRSAQASHSADTRPAGAEKQALEGGRRLLTVPVETVLRVLRANTAARSCTQKEQLRQPPLPTSSPGVSSGDSVARSHVQWLRHRATQSGQRRWRHALHRRLLNRRLLLAVTPWVGDVVVPCTQASQRPAVVQTQADGLREQLQQARLASTPVFTLFTQLFHIDTAGCLEVVRERKALPPRLPQAGARDPPVHLLQASSSAQSTPGHLFPNVPAQEASKSASHKGSRRLASSRVERTLPQASLLASTGPRPKPKTVSELLQEKRLQEARAREATRGPVVLPSQLLVSSSVILQPPLPHTPHGRPAPGPTVLNVPLSGPGAPAAAKPGTSGSWQEAGTSAKDKRLSTMQALPLAPVFSEAEGTAPAASQAPALGPGQISVSCPESGLGQSQAPAASRKQGLPEAPPFLPAAPSPTPLPVQPLSLTHIGGPHVATSVPLPVTWVLTAQGLLPVPVPAVVSLPRPAGTPGPAGLLATLLPPLTETRAAQGPRAPALSSSWQPPANMNREPEPSCRTDTPAPPTHALSQSPAEADGSVAFVPGEAQVAREIPEPRTSSHADPPEAEPPWSGRLPAFGGVIPATEPRGTPGSPSGTQEPRGPLGLEKLPLRQPGPEKGALDLEKPPLPQPGPEKGALDLGLLSQEGEAATQQWLGGQRGVRVPLLGSRLPYQPPALCSLRALSGLLLHKKALEHKATSLVVGGEAERPAGALQASLGLVRGQLQDNPAYLLLRARFLAAFTLPALLATLAPQGVRTTLSVPSRVGSESEDEDLLSELELADRDGQPGCTTATCPIQGAPDSGKCSASSCLDTSNDPDDLDVLRTRHARHTRKRRRLV
B7: NR2C1, P13056 (protein)
chain: MATIEEIAHQIIEQQMGEIVTEQQTGQKIQIVTALDHNTQGKQFILTNHDGSTPSKVILARQDSTPGKVFLTTPDAAGVNQLFFTTPDLSAQHLQLLTDNSPDQGPNKVFDLCVVCGDKASGRHYGAVTCEGCKGFFKRSIRKNLVYSCRGSKDCIINKHHRNRCQYCRLQRCIAFGMKQDSVQCERKPIEVSREKSSNCAASTEKIYIRKDLRSPLTATPTFVTDSESTRSTGLLDSGMFMNIHPSGVKTESAVLMTSDKAESCQGDLSTLANVVTSLANLGKTKDLSQNSNEMSMIESLSNDDTSLCEFQEMQTNGDVSRAFDTLAKALNPGESTACQSSVAGMEGSVHLITGDSSINYTEKEGPLLSDSHVAFRLTMPSPMPEYLNVHYIGESASRLLFLSMHWALSIPSFQALGQENSISLVKAYWNELFTLGLAQCWQVMNVATILATFVNCLHNSLQQDKMSTERRKLLMEHIFKLQEFCNSMVKLCIDGYEYAYLKAIVLFSPDHPSLENMEQIEKFQEKAYVEFQDYITKTYPDDTYRLSRLLLRLPALRLMNATITEELFFKGLIGNIRIDSVIPHILKMEPADYNSQIIGHSI
B8: ZRANB2, O95218 (protein)
chain: MSTKNFRVSDGDWICPDKKCGNVNFARRTSCNRCGREKTTEAKMMKAGGTEIGKTLAEKSRGLFSANDWQCKTCSNVNWARRSECNMCNTPKYAKLEERTGYGGGFNERENVEYIEREESDGEYDEFGRKKKKYRGKAVGPASILKEVEDKESEGEEEDEDEDLSKYKLDEDEDEDDADLSKYNLDASEEEDSNKKKSNRRSRSKSRSSHSRSSSRSSSPSSSRSRSRSRSRSSSSSQSRSRSSSRERSRSRGSKSRSSSRSHRGSSSPRKRSYSSSSSSPERNRKRSRSRSSSSGDRKKRRTRSRSPERRHRSSSGSSHSGSRSSSKKK

This assay addresses nucleoprotein N of Crimean-Congo hemorrhagic fever virus. Put plainly: AlphaScreen luminescence signal relative to Venus negative control (fold); higher = stronger binding to CCHFV N. On the procedure: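 AlphaScreen binding of cell-free made, FLAG-GST-tagged human transcription factors and regulators (crude translation products) to biotinylated N protein; signal as fold of the FLAG-GST-Venus control. One pass.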
On the technique in general: Alpha assays give light when donor and acceptor beads are brought close together.
B1 had an AlphaScreen luminescence signal of 1.49.
Consider B2, for which the AlphaScreen luminescence signal turned out to be 1.16.
For B3 the value was 2.74.
Turning to B4, the AlphaScreen luminescence signal was determined as 1.77.
For B5 the value was 1.91.
For B6 the value was 1.67; for B7, 2.93.
For B8 the value was 1.07.
